{
  "source": "paper PMC12136788",
  "binders": {"B1": {"name": "chr15:23003119:23003120:+_ENSG00000068793_ENST00000560848|hu_hu|FALSE|FALSE (ssRNA)", "RNA": "GGGAGUUCUACAGUCCGACGAUCUUUUUAGAUCGAAAAGCACCCCCUUUAACAGGUACAGAGAUACUGAAAAAUAGUCCCUAAAAAUCUCACUAAAUAGUUUACGGAGAGAAAGGCAUGCCAUGUUGAGUUACGGAGUGCAGCCAACAGAGGAUUGAGCAUCA"}, "B2": {"name": "chr15:31387667:31387668:-_ENSMUSG00000039100_ENSMUST00000090227|mus_mus|motif|central (ssRNA)", "RNA": "GGGAGUUCUACAGUCCGACGAUCUGGGCCCUCAGACCUUUCCAACUAUGGGUUUAAUACUCCAUGGAACUCUUUACAGUCGGUGAAAGCUUCUAGCACUAUCCUUAUAAUACACCUUUACCAUUAAACACUUGAAUGACGUACCAACAGAGGAUUGAGCAUCA"}, "B3": {"name": "118334292_118334412_3697_CDS_ENSMUSG00000030138_ENSMUST00000032237|mouse|control|control (ssRNA)", "RNA": "GGGAGUUCUACAGUCCGACGAUCCUGCCUGUCCCUCGGCACUUUGCCUGCCUUUGCUUGAGUCUUGGGUUUGUUCUUAAAUGGCAGAGCCUUCUGCAAGGCUUUGGGAAUGUGCAGUGAAUUAAAAUGUUUCUUUUGUCUCAGCAACAGAGGAUUGAGCAUCA"}, "B4": {"name": "chr1:225611761:225611762:-_ENSG00000143815_ENST00000272163|hu_mus|hu_hu_hu_mus_True|58_108 (ssRNA)", "RNA": "GGGAGUUCUACAGUCCGACGAUCCCAGGCCAUCGACCUCUGACCACUUCACCCUCAACAAACUUCCUACUUGGCAUUUUCUAUAAUUAGUCUGGCCGCGCUCCGGCGGGAACUCCAGCCACUCCAGGACAGUCACCAGCAGCCCAACAGAGGAUUGAGCAUCA"}, "B5": {"name": "chr11:95532483:95532484:+_ENSG00000166037_ENST00000540830|hu_mus|FALSE|FALSE (ssRNA)", "RNA": "GGGAGUUCUACAGUCCGACGAUCGCUGUUGCUUUCCGGAUAGGCAAAUGUGGGCUUAUUUGGGGAGCGUCUCAGAUCACUGUUAAGGAAAGGCUUAUCAGGUGGAUACAAUACAUAUGGAGACGAAGAAUGACGAACCAUAUUCAACAGAGGAUUGAGCAUCA"}, "B6": {"name": "chr16:22014287:22014288:+_ENSMUSG00000022855_ENSMUST00000023561|mus_mus|FALSE|FALSE (ssRNA)", "RNA": "GGGAGUUCUACAGUCCGACGAUCAGAGUUCGAAAAGACCUCUCCAGAAGGGGCCACAUUCCGUGUUCCAUUACAAGCAGAAGACACCAUGGGUUUUGUGGUCAGCUGGAACGGGAAUCCAAAUAAACUGGCAGCAUUGUAGAGCAACAGAGGAUUGAGCAUCA"}, "B7": {"name": "chr12:86613709:86613710:-_ENSMUSG00000008822_ENSMUST00000008966|mus_mus|motif|central (ssRNA)", "RNA": "GGGAGUUCUACAGUCCGACGAUCCUGCAGUUGCCCUUGCACGGUGCCCCGGUCGGUGUUCUGAACCCAGCCCACCAAACCGGGCUUUUUACCCUCAGCCUGAGUGUACUUGCGGAAAAACACCCCUUGAACCUUUCCAAAAAUCAACAGAGGAUUGAGCAUCA"}, "B8": {"name": "chr14:66974463:66974464:+_ENSMUSG00000022044_ENSMUST00000074523|mus_hu|mus_mus_mus_hu_False|78_108 (ssRNA)", "RNA": "GGGAGUUCUACAGUCCGACGAUCUUGUAGGAUGAUUUAUUCAGGGGAUCGGCCAGGAAGCAAGAGCAGAACAAGGACACCAGCGGGAGCUCCUUCAUCUUCUCUUUGUAGGCAGCAAGGGUCAUGUUUCUGGGAUCUGGUGGCCAACAGAGGAUUGAGCAUCA"}, "B9": {"name": "chr14:90871172:90871173:+_ENSG00000198668_ENST00000553542|hu_hu|FALSE|FALSE (ssRNA)", "RNA": "GGGAGUUCUACAGUCCGACGAUCAAUACAUGCAGAUUUUGUGUGUGUGGACAGAAGGUACUUUUGACAUUCAGUUUUGCUAUAUAGAAACAGAAUGAAUAAAUGAACUUUUUUCUUUUUUCUUUUUUUUGCAAGAGGUAAGUACAACAGAGGAUUGAGCAUCA"}, "B10": {"name": "chr10:33218917:33218918:-_ENSG00000150093_ENST00000302278|perfect_dup|FALSE|FALSE (ssRNA)", "RNA": "GGGAGUUCUACAGUCCGACGAUCAGAGCCUCUGGGAUUCUCUAUGUCACUUGGCUGGCAACCCUUCUUUUUCAAAGCUUCUAAAUCAUCACAUCGUGCAGAAGUAGGCAUUCCUUCUUGCAAAAAUGUCGUAUUUGUACACCACAACAGAGGAUUGAGCAUCA"}, "B11": {"name": "chr14:60920330:60920331:+_ENSMUSG00000021987_ENSMUST00000022563|mus_mus|motif|central (ssRNA)", "RNA": "GGGAGUUCUACAGUCCGACGAUCGCAAAAUCUCCACUACCCGCACUUCCCUUUUUCCUUUACCUGAAAGUUUAUAGGCAGCGGCAGUCAAGUUAAAAAUGUAUUUAGUACUCAGAACGCUUUAGAGCUUUGCCACUUUAAAUGCAACAGAGGAUUGAGCAUCA"}, "B12": {"name": "chr3:138219032:138219033:+_ENSMUSG00000028156_ENSMUST00000029803|mus_hu|FALSE|FALSE (ssRNA)", "RNA": "GGGAGUUCUACAGUCCGACGAUCUGUUACAUGAGGAAAAAAACAAAAGCAAAACAAAUGAAAAACUGAAAUCAGAAUCACUAAUAUUAUCAAGUAGGGAAACAAAUAAAUUAAAAUCUAGCAGCCAUCAGCAAGAGUACAGCACAACAGAGGAUUGAGCAUCA"}, "B13": {"name": "chr22:19452774:19452775:-_ENSG00000070010_ENST00000399523|hu_hu|hu_hu_hu_mus_False|38_78 (ssRNA)", "RNA": "GGGAGUUCUACAGUCCGACGAUCCUUCUCAUUGUAGUUGAUAGCAAUCACAUCUCCGGUGGUCAGACAGGCGAAGUUUCUCAAUGCAUUUUCUAAUACGGCUUUGGGGUUGGUAAUAUCCAGGAAGUCUGGGCUCUGAGGCUGCAACAGAGGAUUGAGCAUCA"}, "B14": {"name": "chr1:95363323:95363324:-_ENSG00000117519_ENST00000538964|hu_hu|motif|central (ssRNA)", "RNA": "GGGAGUUCUACAGUCCGACGAUCAAGGACUAAAUACUGAGCUCCUUCUGUGUGGAUCUAAUAAUCAAUGCCUUGGUCGCGGUAUUGGUAAUCUCUGGGGUAGUCAUCCUGGUACUCGCCAUGAUACUCAUCAGGGUAUUCUGCCAACAGAGGAUUGAGCAUCA"}},
  "note": "The list shows a part of the results.",
  "data": [
    {"target": "T1, UNK ZnF1-3 (human, UniProt Q9C0B0 31-174)", "T1 sequence": "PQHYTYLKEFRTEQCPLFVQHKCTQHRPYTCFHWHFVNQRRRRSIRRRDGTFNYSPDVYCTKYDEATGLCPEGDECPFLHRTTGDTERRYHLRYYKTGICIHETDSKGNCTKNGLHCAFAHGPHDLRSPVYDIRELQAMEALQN", "assay": "nsRBNS (natural sequence RNA bind-n-seq); RBNS binding buffer (assumed for nsRBNS): 25 mM Tris pH 7.5, 150 mM KCl, 3 mM MgCl2, 0.01% Triton X-100, 500 ug/ml BSA, 20 U/ml SUPERase-In, 4 C; UNK is unkempt and MSI1 is Musashi-1; names of the RNAs are library labels; protein concentration not given here; high values mean tight binding", "units": {"binding signal": "enrichment R"}, "values": [
      {"binder": "B1", "binding signal": 1.42},
      {"binder": "B2", "binding signal": 0.722},
      {"binder": "B3", "binding signal": 0.649},
      {"binder": "B4", "binding signal": 1.36},
      {"binder": "B5", "binding signal": 1.53},
      {"binder": "B6", "binding signal": 1.46},
      {"binder": "B7", "binding signal": 0.953},
      {"binder": "B8", "binding signal": 2.41},
      {"binder": "B9", "binding signal": 1.18},
      {"binder": "B10", "binding signal": 0.789},
      {"binder": "B11", "binding signal": 1.19},
      {"binder": "B12", "binding signal": 2.42},
      {"binder": "B13", "binding signal": 1.12},
      {"binder": "B14", "binding signal": 0.506}
    ]}
  ]
}
